The whole screen tested about 350,000 compounds, of which about 31,000 (8.9%) were called active. Inconclusive means that the source gave no clear call. Such entries were picked first, then a sample of the others. The call rests on the fitted dose curve; in most records, active means well fitted inhibition curve with a large enough effect; inconclusive means small, poorly fitted or top-dose-only effect; inactive means no such curve, though single readings can be large or run the other way. Potencies beside an inconclusive call are fits to weak or partial responses and may not hold up.
Target: Histone-lysine N-methyltransferase EHMT2 (Homo sapiens) (UniProt Q96KQ7)
Test: qHTS Assay for Inhibitors of Histone Lysine Methyltransferase G9a; further: nearly all actives have a fitted effect of over 75% in size
Details: G9a H3K9 monomethylation, AlphaScreen, 2 h; activity, negative = inhibition: at 59 µM (top of the series) unless noted
Method in brief: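 AlphaScreen detection with an anti-monomethyl H3K9 antibody quantified product after a 2 h room-temperature reaction containing 500 nM biotinylated H3K9 peptide, 20 µM SAM and 20 nM enzyme, which had been preincubated 15 min with compound.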
On the % scale 0 is the no-effect control and ±100 the full control effect; potency means the concentration at half of the fitted maximal effect; tags describe the fitted curve by direction and shape.

Chain of UniProt Q96KQ7 (Q96KQ7 whole entry, looked up): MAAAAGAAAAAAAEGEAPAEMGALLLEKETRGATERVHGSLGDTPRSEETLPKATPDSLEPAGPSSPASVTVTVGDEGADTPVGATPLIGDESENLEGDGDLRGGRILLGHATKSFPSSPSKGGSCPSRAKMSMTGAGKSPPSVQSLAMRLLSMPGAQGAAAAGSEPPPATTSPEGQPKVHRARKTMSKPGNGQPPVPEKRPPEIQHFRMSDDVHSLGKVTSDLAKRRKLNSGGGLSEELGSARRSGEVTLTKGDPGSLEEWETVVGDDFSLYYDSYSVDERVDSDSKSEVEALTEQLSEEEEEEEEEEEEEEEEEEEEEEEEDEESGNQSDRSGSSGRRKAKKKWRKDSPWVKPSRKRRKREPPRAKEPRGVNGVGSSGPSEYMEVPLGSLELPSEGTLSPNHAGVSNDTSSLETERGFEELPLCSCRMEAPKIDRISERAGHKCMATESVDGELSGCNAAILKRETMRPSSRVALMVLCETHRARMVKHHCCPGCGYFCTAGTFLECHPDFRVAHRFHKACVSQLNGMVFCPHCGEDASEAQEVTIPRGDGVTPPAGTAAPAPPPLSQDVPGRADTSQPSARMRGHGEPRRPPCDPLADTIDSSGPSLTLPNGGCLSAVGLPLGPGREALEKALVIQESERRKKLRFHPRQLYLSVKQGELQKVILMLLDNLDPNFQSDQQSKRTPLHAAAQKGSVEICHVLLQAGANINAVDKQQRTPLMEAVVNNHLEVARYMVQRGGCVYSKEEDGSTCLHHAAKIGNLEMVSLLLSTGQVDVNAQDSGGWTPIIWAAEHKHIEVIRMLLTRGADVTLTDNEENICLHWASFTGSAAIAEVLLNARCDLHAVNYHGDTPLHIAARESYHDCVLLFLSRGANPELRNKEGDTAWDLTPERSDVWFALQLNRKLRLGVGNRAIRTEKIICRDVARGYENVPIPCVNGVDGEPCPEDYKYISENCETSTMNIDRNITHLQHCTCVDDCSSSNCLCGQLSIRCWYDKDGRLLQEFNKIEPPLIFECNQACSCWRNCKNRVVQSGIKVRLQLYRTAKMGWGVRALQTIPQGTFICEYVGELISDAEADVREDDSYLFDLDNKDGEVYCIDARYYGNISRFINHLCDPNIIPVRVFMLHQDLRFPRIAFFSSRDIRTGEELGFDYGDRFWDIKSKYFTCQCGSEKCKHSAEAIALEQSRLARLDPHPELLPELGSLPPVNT

Row | Compound | activity, negative = inhibition | Potency
1 | C[C@@]12CCC=C[C@H]1[C@H](c1ccccc1Br)N(Cc1ccccc1)C2=O | inactive: 23% | 
2 | O=C(c1ccc(Cl)cc1Cl)N1CCc2ccccc21 | inactive: 12.9% | 
3 | CCN1C(=O)/C(=C\c2cn(CCC#N)nc2-c2ccc(F)cc2)SC1=S |  | active: 35.5 µM
4 | CC(C)c1ccc(S(=O)(=O)Nc2ccc(O)c(Sc3ncn[nH]3)c2)cc1 |  | inconclusive: 70.8 µM [inhibitor, single point]
5 | COc1ccc(NC(=O)c2oc3ccccc3c2NC(=O)COc2ccc(C(C)C)cc2)c(OC)c1 | inactive: 4.03% | 
6 | Cn1c(=O)oc2cc(S(=O)(=O)NCCC(=O)N3CC=C(c4ccccc4)CC3)ccc21 | inconclusive: -70% [inhibitor] | 
7 | O=C(NN=C1CCN(Cc2ccccc2)CC1)c1cc(Br)ccc1O |  | inconclusive: 79.4 µM [inhibitor, partial curve]
8 | CCCS(=O)(=O)c1nc(S(=O)(=O)c2ccc(C)cc2)c(NC)s1 | inactive: 34.2% | 
9 | O=C(c1cccc(Oc2ccc([N+](=O)[O-])cc2Cl)c1)N1CCCCC1 |  | inconclusive: 79.4 µM [inhibitor, single point]
10 | CCOC(=O)N1CCN(C(=O)c2cccc(NC3=NC4CS(=O)(=O)CC4S3)c2)CC1 (stereo unspecified) |  | inconclusive: 89.1 µM [inhibitor, partial curve, poor fit]
11 | COc1ccc(-c2nc3c(c(SCC(=O)N4CCCCC4)n2)Cc2cc(Cl)ccc2O3)cc1 | inactive: -7.87% | 
12 | COc1cccc(CC2(CO)CCCN(Cc3cc4ccccc4[nH]3)C2)c1 (stereo unspecified) |  | inconclusive: 50.1 µM [inhibitor, partial curve]
13 | CO/N=C/NC(=O)c1ccc([N+](=O)[O-])c(CS(=O)(=O)c2ccc(Cl)cc2)c1 | inactive: 18.8% | 
14 | Fc1ccc(-c2nc(Nc3cccc(C(F)(F)F)c3)nc3c2COc2ccccc2-3)cc1 |  | active: 3.55 µM
15 | Cc1ccc(C(=O)NC(=S)NCC2CCCO2)cc1[N+](=O)[O-] (stereo unspecified) |  | inconclusive: 79.4 µM [inhibitor, single point]
16 | COc1ccc(N2CCN(CCCNC(=O)Nc3ccccc3)CC2)cc1 |  | inconclusive: 14.1 µM [inhibitor, partial curve, poor fit]
17 | O=C(Nc1ccc2c(c1)OCO2)OCc1ccccc1 | inactive: 2.13% [at 12.7 µM] | 
18 | COc1ccccc1NCCC#N |  | inconclusive: 35.5 µM [inhibitor, single point]
19 | Cn1c(CN2CCN(c3ccc(Cl)cc3)CC2)nc2ccccc21 |  | inconclusive: 50.1 µM [inhibitor, partial curve, poor fit]
20 | O=C(CSc1nnc(-c2ccc(F)cc2)o1)N1CCCc2ccccc21 |  | active: 10 µM
21 | Cc1ccc(CSc2nnc3[nH]c(=O)cc(-c4ccccc4)n23)cc1 |  | inconclusive: 3.16 µM [inhibitor, partial curve, poor fit]
22 | COc1ccccc1NS(=O)(=O)c1ccc(N/N=C/c2c(C)nn(-c3ccccc3)c2N2CCCC2)c([N+](=O)[O-])c1 |  | active: 4.47 µM
23 | Cn1c(=O)c2[nH]c(N3CCOCC3)nc2n(-c2ccccc2)c1=O |  | inconclusive: 3.16 µM [inhibitor, partial curve, poor fit]
24 | COc1ccccc1-c1ccc(SCC(=O)NCCc2ccccc2)nn1 | inactive: -3.13% [at 102 µM] | 

Row | Compound | activity, negative = inhibition | Potency
25 | COc1ccc(OC)c(NC(=O)CN(Cc2ccc(F)cc2)C2CCCCC2)c1 | inactive: -14.8% [at 102 µM] | 
26 | CS(=O)(=O)CCSc1ncccc1C(=O)NCc1cccs1 | inactive: 1.32% [at 102 µM] | 
27 | CCOC(=O)c1sc(=S)n(C)c1NC(=O)c1ccc(OC)cc1 | inactive: -107% [at 12.7 µM] | 
28 | CC(NC(=O)Cc1ccccc1)c1nc2ccccc2[nH]1 (stereo unspecified) |  | inconclusive: 89.1 µM [inhibitor, partial curve, poor fit]
29 | Cc1sc(NC(=O)/C=C/c2ccco2)c(C(=O)OC(C)C)c1C |  | inconclusive: 31.6 µM [inhibitor, partial curve, poor fit]
30 | CCOC(=O)NC(=O)/C(C#N)=N/Nc1c(F)cccc1F |  | inconclusive: 56.2 µM [inhibitor, partial curve, poor fit]
31 | Cc1ccccc1OCCCN1C(=O)C(=O)c2cccc(C)c21 |  | inconclusive: 15.8 µM [inhibitor, partial curve, poor fit]
32 | Cc1csc(NC(=O)c2sc3nc(-c4cccs4)ccc3c2N)n1 |  | inconclusive: 25.1 µM [inhibitor, partial curve, poor fit]
33 | COc1ccc(S(=O)(=O)N(C)C)cc1NC(=O)c1ccc2c(c1)NC(=O)C(C)S2 (stereo unspecified) | inactive: 14.3% [at 12.7 µM] | 
34 | Cc1cc(Nc2cc(F)ccc2C)n2ncnc2n1 |  | inconclusive: 8.91 µM [inhibitor, partial curve, poor fit]
35 | O=C(COc1ccc(-n2cnnn2)cc1)Nc1cc(Cl)cc(Cl)c1 |  | inconclusive: 79.4 µM [inhibitor, partial curve, poor fit]
36 | CC(CNC(=O)c1ccc2nc(Cc3ccccc3)oc2c1)c1ccccc1 (stereo unspecified) | inactive: 14.4% | 
37 | C/C=C/c1ccc(OCCn2cncn2)c(OC)c1 |  | active: 14.1 µM
38 | COC(=O)C1CCCN1C(C(=O)NC1CCCCC1)c1ccc(Cl)cc1 (stereo unspecified) |  | inconclusive: 100 µM [inhibitor, single point]
39 | Fc1ccc(C2=CC(c3ccc(F)cc3)n3c(nc4ccccc43)N2)cc1 (stereo unspecified) |  | active: 17.8 µM
40 | O=C(COC(=O)c1ccco1)Nc1nnc(-c2ccccc2)o1 | inconclusive: -51.6% [inhibitor] [at 2.33 µM] | 
41 | NC(=O)c1ccc(NC(=O)COC(=O)c2cc([N+](=O)[O-])ccc2N2CCOCC2)cc1 |  | active: 12.6 µM
42 | COc1ccc(C2=NN(C(N)=S)C(c3ccccc3)C2)cc1 (stereo unspecified) |  | inconclusive: 50.1 µM [inhibitor, partial curve]
43 | NC(=O)C1CCN(C(=O)c2cccc(S(=O)(=O)N3CCCC3)c2)CC1 | inactive: -22.3% [at 102 µM] | 
44 | NNc1nc(C(F)(F)F)nc2ccccc12 |  | active: 31.6 µM
45 | COc1ccc(S(=O)(=O)NCCSc2nnnn2-c2ccccc2)cc1 | inactive: 40.1% | 
46 | O=C1Oc2ccccc2C(=O)C1C(CC(O)c1ccc(-c2ccc(Br)cc2)cc1)c1ccccc1 (stereo unspecified) |  | inconclusive: 2.24 µM [inhibitor, partial curve, poor fit]
47 | Cc1cccc(-c2cc(C(=O)N3CCCc4ccccc43)c3ccccc3n2)c1 |  | inconclusive: 79.4 µM [inhibitor, partial curve, poor fit]
48 | CCC1(CC)Cc2ccccc2C(CC(=O)N2CCOCC2)=N1 |  | active: 39.8 µM

Row | Compound | activity, negative = inhibition | Potency
49 | CCC(=O)N1CCc2cc(S(=O)(=O)N3CCc4ccccc43)ccc21 |  | inconclusive: 5.01 µM [inhibitor, single point]
50 | COc1ccc(NS(=O)(=O)c2ccc3nc(-c4ccccc4)[nH]c3c2)cc1 | inactive: 9.37% | 
51 | O=C(Nc1ccc2c(c1)OCCO2)c1cc(F)c(F)cc1Cl |  | inconclusive: 35.5 µM [inhibitor, partial curve, poor fit]
52 | O=C(NC1CCCCC1)C1CCCN(S(=O)(=O)c2cccs2)C1 (stereo unspecified) |  | inconclusive: 14.1 µM [inhibitor, partial curve, poor fit]
53 | COc1ccc(CN(CC2CCCO2)C(=O)c2cc3sccc3n2C)c(OC)c1 (stereo unspecified) |  | inconclusive: 56.2 µM [inhibitor, partial curve, poor fit]
54 | CC1CCCN(S(=O)(=O)c2ccc3c(c2)CCN3C(=O)CCC(=O)O)C1 (stereo unspecified) | inactive: 1.47% | 
55 | C=CCN1C(=O)N/C(=C/c2ccc(C)o2)C1=O |  | inconclusive: 22.4 µM [inhibitor, single point]
56 | Cn1c(SCC(=O)N2CCN(S(=O)(=O)c3ccc(Cl)cc3)CC2)nc2ccccc21 |  | inconclusive: 39.8 µM [inhibitor, single point]
57 | O=C(NCCNC(=O)c1ccco1)c1ccc(F)cc1 | inactive: -1.73% [at 102 µM] | 
58 | CC(C)=CC(=O)N1CCCc2ccccc21 |  | inconclusive: 1.26 µM [inhibitor, partial curve, poor fit]
59 | CCC(c1nnnn1Cc1ccccc1)N1CCN(c2ccc(OC)cc2)CC1 (stereo unspecified) |  | active: 12.6 µM
60 | Cc1ccc(C)c(NC(=O)CSc2n[nH]c(-c3ccccn3)n2)c1 | inactive: 61% [at 102 µM] | 
61 | Cc1ccccc1-n1c(=O)n(Cc2ccc(C(=O)O)cc2)c(=O)c2[nH]cnc21 |  | inconclusive: 89.1 µM [inhibitor, single point]
62 | COC(=O)[C@H]1C[C@@H]1[C@H](NC(=O)[C@H]1C[C@@H]1[C@H](NC(=O)OCc1ccccc1)c1ccccc1)c1ccccc1 |  | active: 44.7 µM
63 | CCOc1ccc2oc(C(=O)N(Cc3nnc(-c4ccccc4Cl)o3)C3CC3)c(C)c2c1 |  | inconclusive: 39.8 µM [inhibitor, full curve]
64 | O=C(CSc1oc(-c2ccccc2)nc1S(=O)(=O)c1ccc(Cl)cc1)c1ccccc1 |  | active: 11.2 µM
65 | O=C1N(Cc2cccnc2)C[C@@H]2C[C@@H](c3ccc4nsnc4c3)N3CCC[C@@]123 |  | inconclusive: 44.7 µM [inhibitor, partial curve]
66 | Cc1ccc2c(=O)cc(C(=O)Nc3ccc(S(=O)(=O)Nc4onc(C)c4C)cc3)oc2c1C | inactive: -37.4% | 
67 | COc1ccc(OC)c(NC(=O)c2ccno2)c1 |  | inconclusive: 79.4 µM [inhibitor, single point]
68 | COc1cccc(Cn2c(=O)c(-c3ccccc3)nc3cnc(N(C)C)nc32)c1 | inactive: 5.1% [at 12.7 µM] | 
69 | COc1cccc(NC(=O)/C=C/c2ccco2)c1 |  | active: 35.5 µM
70 | CS(=O)(=O)c1sc2nc(-c3cccs3)cc(-c3ccccc3)c2c1N |  | inconclusive: 2.82 µM [inhibitor, single point]
71 | O=C(CN1C(=O)NC2(CCCCC2)C1=O)Nc1ccc(F)cc1 | inactive: -13.7% [at 102 µM] | 

Source: PubChem BioAssay AID504332 (National Center for Advancing Translational Sciences (NCATS), 2011)
